Test results: the supplement of paper PMC8728848
This is one part of the list.

Columns and labels:
Test in all cases: glycan array binding signal (z-score within array); higher = stronger binding
Conditions in all cases: glycan notation: IUPAC condensed, linker removed
[1] = target: Neu5Ac(a2-8)Neu5Ac
In short: (§1)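 From the Consortium for Functional Glycomics database, 3228 arrays were curated, keeping only those whose protein sequence was available. Binding is given as a within-array Z-score averaged across arrays sharing a protein sequence and across linkers. Negative Z-scores can be read as non-binding.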

[2] = target: Neu5Ac(a2-8)Neu5Ac(a2-3)Gal(b1-3)GalNAc(b1-4)[Neu5Ac(a2-3)]Gal(b1-4)Glc
In short: as §1

[3] = target: Neu5Ac(a2-8)Neu5Ac(a2-3)Gal(b1-3)GalNAc(b1-4)[Neu5Ac(a2-8)Neu5Ac(a2-3)]Gal(b1-4)Glc
In short: as §1

[4] = target: Neu5Ac(a2-8)Neu5Ac(a2-3)Gal(b1-4)Glc
In short: as §1

[5] = target: Neu5Ac(a2-8)Neu5Ac(a2-3)Gal(b1-4)GlcNAc
In short: as §1

[6] = target: Neu5Ac(a2-8)Neu5Ac(a2-3)[Gal(b1-3)GalNAc(b1-4)]Gal(b1-4)Glc
In short: as §1

[7] = target: Neu5Ac(a2-8)Neu5Ac(a2-3)[GalNAc(b1-4)]Gal(b1-4)Glc
In short: as §1

[8] = target: Neu5Ac(a2-8)Neu5Ac(a2-8)Neu5Ac
In short: as §1

[9] = target: Neu5Ac(a2-8)Neu5Ac(a2-8)Neu5Ac(a2-3)Gal(b1-4)Glc
In short: as §1

[10] = target: Neu5Ac(a2-8)Neu5Ac(a2-8)Neu5Ac(a2-3)[Gal(b1-3)GalNAc(b1-4)]Gal(b1-4)Glc
In short: as §1

[11] = target: Neu5Ac(a2-8)Neu5Ac(a2-8)Neu5Ac(a2-3)[GalNAc(b1-4)]Gal(b1-4)Glc
In short: as §1

[12] = target: Neu5Ac(a2-8)Neu5Ac(a2-8)Neu5Ac(a2-8)Neu5Ac(a2-3)[GalNAc(b1-4)]Gal(b1-4)Glc
In short: as §1

[13] = target: Neu5Ac(a2-8)Neu5Gc(a2-3)Gal(b1-4)GlcNAc
In short: as §1

[14] = target: Neu5Ac(b2-6)Gal(b1-4)GlcNAc
In short: as §1

[15] = target: Neu5Ac(b2-6)GalNAc
In short: as §1

[16] = target: Neu5Ac9Ac(a2-3)Gal(b1-3)GlcNAc
In short: as §1

[17] = target: Neu5Ac9Ac(a2-3)Gal(b1-4)GlcNAc
In short: as §1

[18] = target: Neu5Ac9Ac(a2-6)Gal(b1-4)GlcNAc
In short: as §1

[19] = target: Neu5Gc(a2-3)Gal(b1-3)GlcNAc
In short: as §1

[20] = target: Neu5Gc(a2-3)Gal(b1-3)[Fuc(a1-4)]GlcNAc
In short: as §1

[21] = target: Neu5Gc(a2-3)Gal(b1-4)Glc
In short: as §1

[22] = target: Neu5Gc(a2-3)Gal(b1-4)GlcNAc
In short: as §1

[23] = target: Neu5Gc(a2-3)Gal(b1-4)GlcNAc(b1-3)Gal(b1-4)GlcNAc(b1-2)Man(a1-3)[Neu5Gc(a2-3)Gal(b1-4)GlcNAc(b1-3)Gal(b1-4)GlcNAc(b1-2)Man(a1-6)]Man(b1-4)GlcNAc(b1-4)GlcNAc
In short: as §1

[24] = target: Neu5Gc(a2-3)Gal(b1-4)[Fuc(a1-3)]GlcNAc
In short: as §1

[25] = target: Neu5Gc(a2-6)Gal(b1-4)GlcNAc
In short: as §1

[26] = target: Neu5Gc(a2-6)GalNAc
In short: as §1

[27] = target: Neu5Gc(a2-8)Neu5Ac(a2-3)Gal(b1-4)GlcNAc
In short: as §1

[28] = target: Neu5Gc(a2-8)Neu5Gc(a2-3)Gal(b1-4)GlcNAc
In short: as §1

[29] = target: Neu5Gc(a2-8)Neu5Gc(a2-3)Gal(b1-4)GlcNAc(b1-3)Gal(b1-4)GlcNAc
In short: as §1

[30] = target: Neu5Gc(a2-8)Neu5Gc(a2-6)Gal(b1-4)GlcNAc
In short: as §1

[31] = target: Neu5Gc(b2-6)Gal(b1-4)GlcNAc
In short: as §1

B1: SialidaseA (Arthrobacter ureafaciens) (protein)
chain: MRSNSTSAPSLVRRAATGVLTCAVSIGLLAGLGLPAQAAPTPPNSPTLPPGSFSETNLAADRTAANFFYRIPALTYLGNDVVLAAWDGRPGSAADAPNPNSIVQRRSTDGGKTWGPVQVIAAGHVADASGPRYGYSDPSYIYDAEANKVFAFFVYSKDQGFGGSQFGNDDADRNVISSAVIESSDAGVTWSQPRLITSVTKPGTSKTNPAAGDVRSNFASSGEGIQLKYGPHKGRLIQQYAGDVRQADGSNKIQAYSVYSDDHGVTWHKGANVGDRMDENKTVELSDGRVLLNSRDNANRGYRKVAVSTDGGATYGPVSQDTELPDPANNGAIARMFPNAAQGSADAKKLIFTNANSKTGRENVSARVSCDDGETWPGVRTIRSGFSAYSTVTRLADGKFGVLYEGNYTDNMPFATFDDAWLNYVCAPLAVPAVNIAPSATQEVPVTVTNQEATTLSGATATVYTPSGWSATTVPVPDVAPGASVTVTVALTAPADASGPRSLNAAFTTADGRVSQFTFTATTPVAPQVGLTITGSAPARDVAANPYQAGDVLGYTLNVKSTANVAANSVPLTGTFDSGFLPPAAPNCRYNNLAAGASYNCTTAKHTITAADMERGYFVPEATFSITSTTTPSLTKTVQFTGAAVALRDGLISADISGARTDVGRDLATRPYAAGELVPYAFTVKNTSPFVEQVVPTAGNFSPFLPAGAGNCRYLSLPAGQSYECATPRHAVTAEEVEQGFFVPDTTWEVSAAGQSTRTYRINGGEVDLLVRDAALSATVVAEWKDADGDRFASAGDPVTFTYTVGNAGNVALTGLEAPDAGISLPFLAPGDTATATREHVLTAADVAGGSLAASAFEATARNGSKEVTATAEGQPLELKVQPAQPSKEPELTVQDLEDQTPPFDLGTAFKYRTGQKVSLAGLEYGQWYYVYLNKTGYRLGWMFPTTGDTVEFILPPEVRNGRDDVVVLDKDGRRVSFDRLQVTPKGEKI
[1]
  glycan array binding signal (z-score): 0.915
[2]
  glycan array binding signal (z-score): -0.165
[3]
  glycan array binding signal (z-score): -0.496
[4]
  glycan array binding signal (z-score): 0.214
[5]
  glycan array binding signal (z-score): 0.72
[6]
  glycan array binding signal (z-score): -0.131
[7]
  glycan array binding signal (z-score): 0.978
[8]
  glycan array binding signal (z-score): 1.11
[9]
  glycan array binding signal (z-score): 0.864
[10]
  glycan array binding signal (z-score): -0.754
[11]
  glycan array binding signal (z-score): 0.901
[12]
  glycan array binding signal (z-score): 0.607
[13]
  glycan array binding signal (z-score): -0.289
[14]
  glycan array binding signal (z-score): 1.97
[15]
  glycan array binding signal (z-score): 1.22
[16]
  glycan array binding signal (z-score): 0.113
[17]
  glycan array binding signal (z-score): 0.621
[18]
  glycan array binding signal (z-score): -0.523
[19]
  glycan array binding signal (z-score): 0.271
[20]
  glycan array binding signal (z-score): 1.83
[21]
  glycan array binding signal (z-score): 0.765
[22]
  glycan array binding signal (z-score): 0.363
[23]
  glycan array binding signal (z-score): 1.3
[24]
  glycan array binding signal (z-score): 2.07
[25]
  glycan array binding signal (z-score): 1.5
[26]
  glycan array binding signal (z-score): 1.5
[27]
  glycan array binding signal (z-score): 0.631
[28]
  glycan array binding signal (z-score): 0.678
[29]
  glycan array binding signal (z-score): -0.017
[30]
  glycan array binding signal (z-score): 1.47
[31]
  glycan array binding signal (z-score): 2.17
